# From a collection of fitness landscapes (doi:10.1038/s41467-024-54723-y)
# The full ranking holds about 18,000 sequences; the median of “TetR repression strength (sort-seq, GFP reporter)” is about 0.23, and the highest 2% start at about 0.68. The list shows a part of the results.
# Target: TetR (class B, Tn10) (UniProt P04483)
# Experiment: TetR repression strength (sort-seq, GFP reporter) (relative to tetO2 = 1); higher = stronger repression
# Conditions: E. coli
# Summary of the method: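 In LB with 50 µg/mL chloramphenicol, E. coli SIG10-MAX holding a low-copy library with eight randomized operator positions between a constitutive promoter and sfGFP, plus constitutive TetR, grew for 5 h at 37 °C. FACS then sorted 10^6 cells into 13 fluorescence bins for Illumina sequencing of each bin. Repression strength equals the top bin index plus one less the read-weighted mean bin, normalized to the unaltered operator. Values from three independent transformations were averaged when reads were ≥30 in every replicate and the CV was ≤0.5.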
# UniProt P04483, sequence (P04483 whole entry): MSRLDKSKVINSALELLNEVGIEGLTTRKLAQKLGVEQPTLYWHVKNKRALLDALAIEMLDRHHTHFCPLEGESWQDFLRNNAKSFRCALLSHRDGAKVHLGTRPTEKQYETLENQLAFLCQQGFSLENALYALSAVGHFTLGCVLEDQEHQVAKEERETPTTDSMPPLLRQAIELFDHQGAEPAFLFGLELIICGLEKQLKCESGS
row,Sequence,TetR repression strength
1,TCCCCTGCAGTGTACGAGA,0.231
2,TCCCGGAAAGTGATTGAGA,0.258
3,TCCCCCCGAGTACGTGAGA,0.839
4,TCCCTGGGAGTGGAAGAGA,0.112
5,TCCCGAACAGTAACGGAGA,0.571
6,TCCCTGGAAGTGGCGGAGA,0.0741
7,TCCCTCTGAGTGTTAGAGA,0.395
8,TCCCGCGTAGTCAACGAGA,0.399
9,TCCCAGTGAGTGGAGGAGA,0.183
10,TCCCTCGGAGTGCCTGAGA,0.238
11,TCCCGATGAGTAGCGGAGA,0.353
12,TCCCCAATAGTAAACGAGA,0.401
13,TCCCTTCCAGTTATAGAGA,0.511
14,TCCCAACTAGTGAGAGAGA,0.104
15,TCCCAGCCAGTGGTGGAGA,0.447
16,TCCCCTACAGTACACGAGA,0.31
17,TCCCATCGAGTGAGGGAGA,0.381
18,TCCCGGGTAGTCGTTGAGA,0.495
19,TCCCAAGGAGTTTGCGAGA,0

row,Sequence,TetR repression strength
1,TCCCACTTAGTTGCTGAGA,0.19
2,TCCCCGTAAGTAAGTGAGA,0.199
3,TCCCTTTAAGTCTCTGAGA,0.249
4,TCCCGTCCAGTGTCTGAGA,0.401
5,TCCCAATTAGTTCGTGAGA,0.12
6,TCCCGAGAAGTACGTGAGA,0.237
7,TCCCGAGAAGTAAGCGAGA,0.255
8,TCCCCCGGAGTTATAGAGA,0.416
9,TCCCTGCGAGTGAGCGAGA,0.134
10,TCCCAGGGAGTTCATGAGA,0.15
11,TCCCTGATAGTACTCGAGA,0.278
12,TCCCGGACAGTTTCAGAGA,0.13
13,TCCCTGCCAGTTGGGGAGA,0.388
14,TCCCGCAGAGTAGGAGAGA,0.169
15,TCCCAGTTAGTATAAGAGA,0.354
16,TCCCGCATAGTGAGGGAGA,0.232
17,TCCCAAGCAGTTGTCGAGA,0.299
18,TCCCGAACAGTGCCGGAGA,0.476
19,TCCCAGTGAGTAGGAGAGA,0.0995

row,Sequence,TetR repression strength
1,TCCCTTGTAGTGCCTGAGA,0.181
2,TCCCGGTCAGTAGGGGAGA,0.392
3,TCCCATACAGTCCGCGAGA,0.364
4,TCCCATCCAGTGTACGAGA,0.262
5,TCCCGCAAAGTCCCTGAGA,0.363
6,TCCCTGTTAGTGCAAGAGA,0.553
7,TCCCAGTAAGTCGGGGAGA,0.698
8,TCCCATCCAGTAATTGAGA,0.516
9,TCCCTTACAGTTGGAGAGA,0.0566
10,TCCCATCCAGTTCGAGAGA,0.32
11,TCCCAGATAGTCGGAGAGA,0.199
12,TCCCTTATAGTTATGGAGA,0.0518
13,TCCCCCCGAGTAAGTGAGA,0.278
14,TCCCACCAAGTGGAAGAGA,0.35
15,TCCCGGCAAGTGCAGGAGA,0.0479
16,TCCCTGGCAGTGGGTGAGA,0.291
17,TCCCTCTTAGTGACGGAGA,0.207
18,TCCCAGATAGTGGGTGAGA,0.211
